Results reported in the RNAGym collection of RNA variant scans (doi:10.7554/elife.90254).
The source gives no read counts; variants with many changes may rest on few reads.

B1: LINE1-full (parent)
chain: UACGUAGGUGGUUUUCCCCUGAUAGUGCUAAGGGGGCCUGGAAGUUUGGACUGGGCAGAGCUCAACACAGCGUGGCAAAGUGGCUGUGGCUAGACUGCCUCUCUGGAUUCCUCGUCACUCAGCAGGGCAUCUCUGAGAGAAAUGCC

Variants of: B1
Assay: self-cleavage, relative activity (ratio to wild type); higher = more cleavage; in vitro, sequencing; the parent is a self-cleaving ribozyme

Variant | self-cleavage
UACGUAGGUGGUUUUCCCCUGAUAGUGCUGAGGGGGCCUGGAAGUUUGGACUGGGCAGAGCUCAGCACAGCGUGGCAAAGUGGCUGUGGCUAGACUGCCUCUCUGGACUCCUCGUCACUCAGCAGGGCAUCUCUGAGAGACAUGCC | 0
UACGUAGGUGGUUUUCCCCUGAUAGUGCUAAGGGGGCCUGGAAGUUUGGACUGGGCAGAGCUCAACACAGCGUGGCAAGGUGGCUGUGGCUAGACUGCCUCUCUGGUUUCCUCGUCACUCAGCAGGGCAUCACUAAGAGAAAUGCC | 0
UACGUAGGUGGUUUUCCCCUGAUAGUGCUAAGGGGGCCUGGAAGCUAGGACUGGGCAGAGCUUAACACAGCGUGGCAAAGUGGCUGUGGAUAGGCUGCCUCUCUGGAUUCCUCGUCACUCAGCAGGGCAUCUCUGAGGGAAAUGCC | 0.17
UACGUAGGUGGCUUUCCCCUGAUAGUGCUAAGGGGGCCUGGAAGUUUGGACUGGGCAGAGCUCAACACAGCGUGGCAGAGUGGCUGUGGCUGGACUGCCUCUCUGGAUUCCUCGUCACUCAGCAGGGCAUCUCUGAGAGAAAUGCC | 0.3
UACGUAGGUGGUUCUCCCCUGAUAGUGCUAAGGGGGCCUGGAAGUUUGGACUGGGCAGAGCUCAACACAGCGUGGCAAAGUGGCUGUGGCUAGACUGCCCCUCUUGAUUCCUCGUCACUCAGCAGGGCAUCUCUGGGGGAAAUGCC | 2.43
UACGUAGGUGGUUUUCCCCUGAUAGUGCUAAGGGGGCCUGGAAGUUUGGACUGGGCAGAGCUCAACACAGCGUGGCAGAGUGGCUGUGGCUAGACUGCCCCCCUGGAUUCCUCGUCACUCAGCAGGGCAUCUCUGAGAGAAAUGCC | 0.97
UACGUAGGUGGUUUUCCCCUGAUAGUGCUAAGGGGGCCUGGAAGUUUGGACUGGGCAGAGCUCAACACAGCGUGGCUAAGUGGCUGUGGCUGGACUGCCUCACUGGAUUCCUCGUCACUCAGCAGGGCAUCUCCGAGAGAAAUGCC | 0.4
UACGUGGGUGGUUUUCCCCUGAUAGUGCUAAGGGGGCCUGGAAGUUUGGACUGGGCAGACCUCAACUCAGCGUGGCAAUGUGGCUGUGGCUAGACUGCCUCUCUGGAUUCCUCGUCACUCAGCGGGGCGUCUCUGAGAGAAAUGCC | 0.16
UACGUAGGUGGUUUUCCCCUGAUAGUGCUAAGGGGGCCAGGAAGUUUGGACUGGGCAGAGCACAACACAGCGUGGCAAAGUGGCUGUGGCUAGACUGCCUCUCUGGAUUCCUCGUCACUCAGCAGGGCAUCUCUGAGAGAGAUGCC | 0.04
UACGUAGGUGGUUUUCCCCUGAUAGUGCUAAGGGGGCCUGGAAGUUUGGACUGGGCAGAGCUCAACUCAGCGUGGCAAAGUGGCUGUGGCUAGACUGCCUCUCUGGAUUCCUCGUCACUCAGCAGGGCAGCGCUGAGAGAAAUGCC | 0.11
UACGUAGGUGGUCUUCCCCCGAUAGUGCCAAGGGGGCCUGGAAGUUUGGACUGGGCAGAGCUCAACACAGCGUGGCAAAGUGGCUGUGGCUAGACUGCCUCUCUGGAUUCCUCGUCACUCAGCAGGGCAUCUCUGAGAGAAUUGCC | 1.48
UACGUAGGUGGCUUUCCCCUGAUAGUGCUAAGGGGGCCUGGAAGUUUGGACUGGGCAGAGCUCAACACAGCGUGGCAAAGCGGCCGUGGCUAGACUGCCUCUCUGGAUUCCUCGUCACUCAGCAGGGCAUCUCCGAGAGAAAUGCC | 0
UACGUAGGUGGUUUUCCCCUGAUAGUGCUAAGGGGGCCUGGAAGUUUGGACUGGGCAGAGCUCAACACCGCGUGGCAAAGUGGCUGUGGCUAGACCGCCUCCCUGGAUUCCUCGUCACUCAGCAGGGCAUCUCUGAGAGAAAUGCC | 0.24
UACGUAGGUGGUUUUCCCCUGAUAGUGCUAAGGGGGCCUGGAGGUUUGGACUGGGCAGAGCUCAACACAGCGUGGCAAGGUGUCUGUGGCUAGACUGCCUCUCUGGAUUCCUCGCCACUCAGCAGGGCAUCUCUGAGAGAAAUGCC | 0.83
UACGUAGGUGGUCUUCCCCUGAUAGUGCUAAAGGGGCCUGGAGGUUUGGACUGGGCAGAGCCCAACACAGCGAGGCAAAGUGGCUGUGGCUAGACUGCCUCUCUGGGUUCCUCGUCACUCAACAGGGCAUCUCUGAGAGAGAUGCC | 0.11
UACGUAGGUGGUCUUCCCCUGAUAGUGCUAAGGGGGCCUGGAAGUUUGGACUGGGCAGAGCUCAACACAGCGUGGCAAAGUGGCCGUGGCUAGACUGCCUCUCUGGAUUCCUCGUCACUCUGCAGGGCAUCUCCGAGAGAAAUGCC | 0.42
UACGUAGGUGGUCUUCCCCUGAUUGUGCUAAGGGGGCCUGGAAGUUUGGACUGGGCAGAGCUCAACACAGCGUGGCAAAGUGGCUGUGGCUAGACUGCCACUCUGGAUUCCUCGUCACUCAGCAGGGCAUCUCUGAGAGAAAUGCC | 0.4
UACGUAGGUGGUUCUCCCCUGAUAGUGCUAAGGGGGCCUGGAAGUUUGGACUGGGCAGAGCUCAACACAGCGUGGCAAAGUGGCUGUAGCUAGACUGCCUCUCUGGAUCCCUCGUCACUCAGCAGGGCAUCACUGAGAGAAAUGCC | 0.07
UACGUAGGUGGUUUUCCCCUGAUAGUGCUAAGGGGGCCUGGAAGUUUGGACUGGGCAGAGCUCAACACAGCGUGGCAAAGUGGCUGUGGCUAGACCGCCUCCCUGGAUUCCUCGUCACUCAGCAGGGCAUCUCUGUGAGAAAUGCC | 0.42
UACGUAGGUGGUUUUCCCCUAAUAGUGCUAAGGUGGCCUGGAAGUUCGGACUGGGCAGAGCUCAACACAGCGGGGCAAAGUGGCUGUGGCUAGACUGCCUCUCUGGAUUCCUCGUCACUCAGCAGGGCAUCUCUGAGAGAAAUGCC | 0

Variant | self-cleavage
UACGUAGGUGGUUUUCCCCUGUUAGUGCUAAGGGGGCCUGGAAGUUUGGUCUGGGCAGAGCUCAACACAGCGUGGCAAAGAGGCUGUGGCUAGACUGCCUCUCUGGAUUCCUCGUCACCCAGCAGGGCAUCUCUGAGAGAGAUGCC | 1.99
UACGUAGGUGGUUUUCCCCUGAUAGUGCUAAGGGGGCAUGGAAGUUUGGACUGGGCAGAGCUCAACACAGCGAGUCAAAGUGGCUGUGGCUAGACUGCCUCUCAGGAUUCCUCGUCACUCAGCAGGGCAUCUCUGAGAGAAAUGCC | 0.66
UACGUAGGUGGUUUUCCCCCGAUAGUGCUAAGGGGGCCUGGGAGUUUGGACUGGGUAGAGCUCAACACAGCGUGGCAAAGUGGCUGUGGCUAGACUGCCUCUCUGGAUUCCUCGUCACUCAGCAGGGCAUCUCUGAGAGAAAUGCC | 0.25
UACGUUGGUGGUUUUCCCCUGAUAGUGCUAAGCGGGCCUGGAAGUUUGGACUGGGCAGAGCUCAACACAGCGUGGCAAAGAGGCUGUGGCUAGACUGCCUCUCUGGGUUCCUCGUCACUCGGCAGGGCAUCUCUGAGAGAAAUGCC | 2.16
UACGUAGGUGGUUUUCCCCUGAUAGUGCUAAGGGGGCCUGGAAGCUUGGACUGGGCAGAGCUCAACACAGCGUGGCAAAGUGGCUGUGGCUAGACUGCCCCUCUGGAUUCCUCGUCUCUCAGCAGGGCAUCUCUGAGAGAAAUGCC | 2.52
UACGUAGGUGGUUUUCCCCUGAUAGUGCUAAGGGGGCCUGGAAGUUUGGACUUGGCAGGGCUCAACACAGCGUGGCAAAGUGGCUGUGGCUAGACUGCCUCUCUGGAUUCCUCGUCACUCAGCAGGGCAUCUCUGAGUGAAAUGCC | 0.05
UACGUAGGUGGUUUUCCCCUGAUAGUGCUAAGGGGGCCUGGAAGUUUGGACUGGGCAGAGCUCAACACAGCGUGGCAAAGUGGCUGUGGCUAGACUGCCUCUCUGGGUUCCUCGUCACUCAGCGGGGCAUCUCUGAGAGAGAUGCC | 1.19
UACGUAGGUGGCUUUCCCCUGAUAGUGCUAAGGGGGCCUGGAGGUUUGGACUGGGCAGAGCUCAACACAGCGUGGCAAAGUGGCUGUGGCUAGACUGCCUCUCUGGAUUCCUCGUCACUCAGCAGGGCAUCUCUGAGGGAAAUGCC | 1.23
UACGUAGGUGGUUUCCCCCUGGUAGUGCUAAGGGGGCCUGGAAGUUUGGACUGGGCAGAGCUCAACACAGCGUGGCAAAGUGGCUGUGGCUAGACUGCCUCUCUGGAUUCCUCGUCACUCAGCAGGGCAUCUCUGAGAGGAAUGCC | 1.06
UACGUAGGUGGUUUUCCCCUGAUAGUGCUAAGGGGGCCUGGAAGUUUGGACUGGGCGGAGCUCAACACAGCGUGGCAAGGUGGCUGUGGCUAGUCUGCCUCUCUGGAUUCCUCGUCACUCAGCAGGGCAUCUCUGAGAGAAAUGCC | 0.5
UACGUAGGUGGUUCUCCCCUGAUAGUGCUAAGGGGGCCUGGAAGUUUGGACUGGGCAGAACUCAACACAGCGUGGCAAAGUGGCUGUGGCUAGACAGCCUCCCUGGAUUCCUCGUCACUCAGCAGGGCAUCCCUGAGAGUAAUGCC | 0
UACGUAGGUGGUUUUCCCCUGAUAGUGCUAAGGGGGCCUGGAAGUUUGGACUGGGCGGAGCUCAACACAGCGUGGCAAAGUGGCUGUGGCUAGACUGCCUCUCUGGAUCCCUCGUCACUCAGCAGGGCAUCUCUGAGAGAGAUGCC | 0.47
UACGUAGGUGGUAUUCCCCUGAUAGUGCUAAGGGGGCCAGGAAGUUUGGACUGGGCAGAGCUCAACACAGCGUGGCAAAGGGGCUGUGGCUAGACUGCCUCUCUGGAUUCCUCGCCACUCAGCAGGGCAUCUCUGAGGGAAAUGCC | 1.38
UACGUAGGCGUUUUUCCCCUGAUAGUGCUAAGGGGGCCUGGAAGUUUGGACUGGGCAGAGCUCAACACAGCGUGGCAAAGUGGCUGUGGCUAGACUGCCUCUCUGGAUUCCUCGUCACUCGGCAGGGCAUCUCUGAGAGAAAUGCC | 1.51
UACGUAGGUGGUUUUCCCCUGAUAGUGCUAAGGGGGCCUGGAUGUAUGGACUGGGCAGAGCUCAACACAGCAUGGCAAAGUGGCUGUGGCUAGACUGCCUCUCUGGAUUCCUCGUCACUCAGCAGGGCAUCUCUGAGAGAAAUGCC | 1.46
UACGCAGGUGGUUUUCCCCUGAUAGUGCUAAGGGGGCCUGGAAGUUUGGACUGGGCAGAGCUCAACACAGCGUGGCAAAGUGGCUGUGGCUAGACUGCCGCUCUGGAUUCCUCGUCACUCAGCAGGGCAUCUCUGAGAGAAAUGCA | 0.42
UACGUAGGUGGUUUUCCCCUGAUAGUGCUAAGGGGGCCUGGAAGUUUGGACUGGGCAGAGCUCAACACGGCGUGGCAAAGUGGCUGUGGCUAGACUGCCCCUCUGGAUUCCUCGUCACUCAACAGGGCAUCUCUGAGAGAAAUGCC | 0.12
UACGUAGGUGGUUUUCCCUUGAUAGUGCUAAGGGGGCCCGGAAGUUUGGACUGGGCAGAGCUCAACACAGCGUGGCGAAGUGGCUGUGGCUAGACUGCCUCUCUGGAUUCCUCGUCACUCAGCAGGGCAUCUCUGAGAGAAAUGCC | 1.76
UACGUAGGUGGUUUUCCCCUGAUAGCGCUAAGGGGGCCAGGAAGUUUGGACUGGGCAGAGCUCAACACAGCGUGGCAAAGUGGCUGUGGCUAGACUGCCUCUCUGGAUUCCUCGUCACUCAGCAGGGCUUCUCUGAGAGAAAUGCC | 0.96
